Test results from paper PMC4336329 (PLoS ONE, 2015).
In all, about 310,000 compounds went through this assay and about 2,200 (0.71%) showed an effect of 50% or more. The effect is printed as a negative number. This is one part of the list.

Target: human ether-à-go-go-related gene (hERG) potassium channel (human, UniProt Q12809)
Assay: primary screen, population patch clamp on CHO cells stably expressing hERG

Sequence of human ether-à-go-go-related gene (hERG) potassium channel (Q12809 whole entry, looked up): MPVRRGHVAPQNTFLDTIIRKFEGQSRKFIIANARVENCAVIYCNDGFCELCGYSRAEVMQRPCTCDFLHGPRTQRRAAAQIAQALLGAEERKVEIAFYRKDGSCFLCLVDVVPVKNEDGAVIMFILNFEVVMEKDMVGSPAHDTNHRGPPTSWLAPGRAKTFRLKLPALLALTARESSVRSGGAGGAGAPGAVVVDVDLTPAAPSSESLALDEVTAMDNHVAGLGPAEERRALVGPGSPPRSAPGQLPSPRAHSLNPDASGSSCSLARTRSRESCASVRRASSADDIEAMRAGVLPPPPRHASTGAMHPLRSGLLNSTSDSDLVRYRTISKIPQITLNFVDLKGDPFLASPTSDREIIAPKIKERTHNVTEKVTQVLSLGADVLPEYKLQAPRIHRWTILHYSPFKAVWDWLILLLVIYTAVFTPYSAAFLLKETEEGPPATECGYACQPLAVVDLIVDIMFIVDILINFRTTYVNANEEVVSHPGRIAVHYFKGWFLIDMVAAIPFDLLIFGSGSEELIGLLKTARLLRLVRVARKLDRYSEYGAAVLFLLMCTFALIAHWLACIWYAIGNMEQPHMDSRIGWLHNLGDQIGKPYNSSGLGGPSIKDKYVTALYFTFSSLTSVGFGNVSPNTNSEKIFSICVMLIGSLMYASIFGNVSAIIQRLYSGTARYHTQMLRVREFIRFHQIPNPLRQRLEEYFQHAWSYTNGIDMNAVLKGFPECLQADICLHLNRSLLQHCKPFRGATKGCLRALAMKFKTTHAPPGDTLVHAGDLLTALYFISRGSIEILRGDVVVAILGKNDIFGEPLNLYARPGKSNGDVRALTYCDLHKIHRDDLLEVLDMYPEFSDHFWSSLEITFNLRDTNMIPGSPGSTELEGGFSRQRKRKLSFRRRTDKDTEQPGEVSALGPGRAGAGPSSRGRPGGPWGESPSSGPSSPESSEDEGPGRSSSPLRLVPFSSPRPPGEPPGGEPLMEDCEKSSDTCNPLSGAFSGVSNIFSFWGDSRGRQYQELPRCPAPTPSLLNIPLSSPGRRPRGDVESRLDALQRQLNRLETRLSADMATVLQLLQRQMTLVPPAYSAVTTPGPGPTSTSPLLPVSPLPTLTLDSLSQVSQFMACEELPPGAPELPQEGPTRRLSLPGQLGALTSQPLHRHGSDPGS

SMILES | hERG current change (%, negative = inhibition) at 1uM
CC1(OC(=O)CCc2ccccc2)C(=O)C=C2C=C(C3CC3)OC=C2C1=O (centres unmarked) | 3.31%
Cc1cc(NC(=O)c2ccccc2)sc1C | 10.6%
Cn1c(=O)c2[nH]c(CN3CCN(Cc4ccccc4)CC3)nc2n(C)c1=O | -2.76%
O=C(C1=C[C@H](c2coc3ccccc3c2=O)C[C@H](OCCCCO)O1)N1CCN(Cc2ccccc2)CC1 | -16%
Cc1ccc(C(=O)NCCCn2ccnc2)cc1[N+](=O)[O-] | 11.9%
CCOC(=O)C1(CCc2ccccc2)CCN(Cc2cccc3nccnc23)CC1 | -19.3%
COc1ccccc1C(=O)COC(=O)c1nc2nc(C)cc(C)n2n1 | 10.8%
Fc1cccc(Cl)c1CSC1=NCCS1 | 7.49%
CC1(C)CC(=O)C(C=NCc2cccnc2)=C(O)C1 | -10.7%
Nc1nc[nH]c(=O)c1N=Cc1ccccc1 | 24.7%
COc1ccc(CCN(C)C(=O)C2CCCN(Cc3ccc(OC)c(OC)c3)C2)cc1OC (centres unmarked) | 17.4%
CCC(C(=O)O)n1nnc(-c2ccc(-c3ccc(OC)cc3)cc2)n1 (centres unmarked) | 12.9%
O=C(COC(=O)Cc1ccsc1)Nc1ccc(F)cc1Cl | 14%
COc1ccccc1C(=O)NNC(=O)CCCN1C(=O)/C(=C/c2cccs2)SC1=S | 11.3%
c1ccc(-c2cc(N3CCCCC3)ncn2)cc1 | 3.46%
COc1ccc(CNS(=O)(=O)CCNC(=O)c2ccccc2)cc1 | 11%
COc1ccc(C)cc1NC(=O)C(=O)N/N=C(\C)CC(=O)Nc1cccnc1 | 8.81%
Cc1cc(C)cc(C(=O)N2CCCCCC2)c1 | 6.73%
O=C(C1CCC(=O)N1Cc1ccccc1Cl)N1CCN(c2ccc(F)cc2)CC1 (centres unmarked) | -30.5%

SMILES | hERG current change (%, negative = inhibition) at 1uM
O=C(NC1C2CCCC1CN(C1CC1)C2)c1ccc(Cl)cc1 (centres unmarked) | 9.5%
Cc1cc(C)c2sc(N(CCCN(C)C)C(=O)c3ccc(S(=O)(=O)N4CCc5ccccc5C4)cc3)nc2c1.Cl | 13%
O=C(c1ccc(S(=O)(=O)Nc2ccccc2)cc1)N1CCCC1 | 12.5%
Cc1ccc(CN2C(=O)CN=C(c3ccccc3)c3ccccc32)cc1 | 2.73%
COc1ccc(NC(=O)Cc2c(SC)c3ccccc3n2Cc2ccccc2)cc1 | 6.02%
O=C(O)c1ccc(N2CCN(Cc3ccc4c(c3)OCO4)CC2)c([N+](=O)[O-])c1 | 14.8%
Cc1ccccc1NC(=O)NNC(=O)c1ccc2ccccc2c1O | 9.39%
C/C(=N\NC(=O)C(=O)Nc1c(C)n(C)n(-c2ccccc2)c1=O)c1ccc(Cl)s1 | 5.11%
CC(C)C(NC(N)=O)C(=O)NC1CCCCC1 (centres unmarked) | 11%
Cc1cc(C)c2cc(C#N)c(NCCOC(=O)c3ccccc3C)nc2c1 | -20.7%
Cc1nn(-c2ccccc2)c2nc(N)c(C#N)c(-c3ccc(C(C)(C)C)cc3)c12 | 11%
COc1ccccc1C(=O)Nc1nnc(CCc2ccccc2)s1 | 7.37%
COc1cc(CN2CC(=O)N(c3ccc(C)c(C)c3)C2=S)cc(OC)c1OC | 8.19%
CCOC(=O)C(C)Oc1ccc2c(C)cc(=O)oc2c1C(C)=O (centres unmarked) | -7.98%
CCCCNc1cc(C)nc(NCc2ccccc2)n1 | -11.9%
Cc1ccc(C(=O)/C=C/c2cn(CN3CCN(C)CC3)c3ccccc23)cc1 | 1.06%
O=[N+]([O-])c1cccc(NC(=S)N2CCc3ccccc3C2)c1 | 11.1%
Cc1cc(NC(=O)c2cc3n(n2)C(C(F)(F)F)CC(c2ccc(Cl)c(Cl)c2)N3)no1 (centres unmarked) | 3.54%
Cc1c(Cl)c(C(=O)NC2C3CC4CC(C3)CC2C4)nn1C (centres unmarked) | 17.5%

SMILES | hERG current change (%, negative = inhibition) at 1uM
O=c1cccc2n1CC1CC2CN(S(=O)(=O)c2ccc(F)cc2)C1 (centres unmarked) | 10.6%
O=C(CN1CCN(c2ccccn2)CC1)Nc1cc(F)ccc1F | 6.63%
O=C1C=CC(=O)N1c1ccc(Sc2ccc([N+](=O)[O-])cc2)cc1 | 7.38%
CCS(=O)(=O)NCc1ccc2c(c1)cc(C)n2C | 18.2%
COc1cccc(C(=O)N2CCN(Cc3ccccc3[N+](=O)[O-])CC2)c1 | 3.04%
COc1c(O)ccc(/C=C(\C#N)c2nc3ccccc3[nH]2)c1[N+](=O)[O-] | 7.04%
COc1ccccc1N/C(=N/S(=O)(=O)c1ccc(C)cc1)c1ccccc1 | 9.64%
COc1ccc(C(=O)OCC(=O)c2cc(C)n(CC3CCCO3)c2C)cc1[N+](=O)[O-] (centres unmarked) | -2.29%
Cc1ccc(S(=O)(=O)Nc2cc(C(=O)NCCN(C)C)ccc2N2CCCCC2)cc1 | 0.705%
O=C(Cc1ccc([N+](=O)[O-])cc1)c1c(O)cc(O)cc1O | 7.01%
Cc1cc(C)c(S(C)(=O)=O)c(N(C)N)n1 | 16.5%
COc1cc(-c2c(NC(=O)c3ccco3)oc3ccccc3c2=O)cc(OC)c1OC | 15.3%
Nc1c(C(=O)CSc2n[nH]c(-c3ccccc3Br)n2)c(=O)[nH]c(=O)n1C1CC1 | 7.19%
Cc1ccc(-c2nnc3n2N=C(c2ccccc2Br)CS3)cc1 | 10.3%
CCCn1nc(NC(=O)C(C)(C)C)c2cc3cc(OC)ccc3nc21 | 5.56%
O=C(NCc1cccs1)C1CCCN(C(=O)Nc2ccc(F)cc2)C1 (centres unmarked) | 8.45%
CCCC(=O)Nc1cc2c3c(c1)CCN3C(=O)CC2 | 23.7%
CC(=O)c1cc2c(cc1NC(=O)Cn1nc(C)c(C)c(C#N)c1=O)OCO2 | 5.05%
